Source: the supplement of paper PMC11417369
Some of the results follow.

System: PfHDP1 homeodomain (GST-tagged)
Test: gcPBM binding intensity (ln(normalized median fluorescence intensity)); higher = stronger DNA binding
How it was run: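 Binding intensity is defined as the maximum Masliner-normalised natural-log median intensity across replicate spots for either probe orientation. It was measured on an Agilent 4 × 180k array of primer-extended double-stranded 36-bp intergenic genomic probes and negative controls, to which GST-tagged P. falciparum DNA-binding domains made in E. coli were applied for 1 h in 1× PBS with 1% milk, 0.2 mg/ml BSA, 0.5% salmon testes DNA and 0.03% Triton X-100. Detection was by Alexa488 anti-GST antibody and scanning at 488 nm.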

| Sequence | gcPBM binding intensity (ln) |
| --- | --- |
| CACGAAAATTTGTAGAGTACATATATAATTAATATA [XGTACX_site3808] | 6.63 |
| AAATGAATTTAACAATGTACACATATATTATAAATA [XGTACX_site1449] | 6.2 |
| TACATAATAATAAGGCGTACATAAAAATTAAAAATT [XGTACX_site8769] | 6.68 |
| AAAACGATTTTTTGCACACACATAATAAGCAGAACA [CACACA_site3871] | 10.4 |
| ATATATATATGTATATGTACTCATTCTTCTGTGTTT [XGTACX_site5014] | 8.59 |
| ATATACATTCTATATACATGCATACTTCATTTTGTG [TGCATGCA_site966] | 6.79 |
| AATAATCATGATCATAGTACGTATGAATACAAAAAA [XGTACX_site265] | 6.86 |
| TATCTACTTAAATAAAATAAAAATAATAAATAAAAA [TGCATGCA_negctrl_site312] | 6.46 |
| ATAAAACAAAGACACACACACATACACAAAAAAAAA [CACACA_site7752] | 6.83 |
| TTTTATTTATTCCTACTTTTTTATTTATTTATTTAA [XGTACX_negctrl_site415] | 6.27 |
| ACATTATGTCATAAATGTACACATACATATACATAC [XGTACX_site8998] | 6.43 |
| CGTATGTATATATATATACACACTTCTGTGATACGA [CACACA_site1949] | 6.65 |
| ATGTATAATATTTTCACACACAAGAAAAAAGAAAAG [CACACA_site3591] | 6.78 |
| ATTTATATATATTTATGTACGTATTAATTTTTTTTT [XGTACX_site3877] | 6.62 |
| AATGAATCCTTATATACACACATTATTATAGTATAG [CACACA_site7454] | 6.53 |
| AAAGAAAATTAAAAAGAACACACAAATATATATATA [CACACA_site9196] | 8.6 |
| ATTATACCGTATTTTGCATGTAGTATTTTCATTTTA [TGCATGCA_site1021] | 6.8 |
| ATTAATTATGTATTTCAACAAAGAAGTGTTATATAT [GTGCAC_negctrl_site215] | 6.4 |
| TCTTTATCCTTTCTCTTTTTATTAATTATAATATTC [TGCATGCA_negctrl_site584] | 7.15 |
| ATTATTTGTAATATAACACACACAAAAAAAGACTCG [CACACA_site8487] | 6.66 |
| TATCATTTATATATGTGTACTTATTTATTTATTTAT [XGTACX_site7961] | 6.66 |
| ATATATACCTAAGACACACACATATATATATATATA [CACACA_site764] | 9.32 |

| Sequence | gcPBM binding intensity (ln) |
| --- | --- |
| AAATGTACAGGACGCACACACATATATATATATATA [CACACA_site3674] | 9.42 |
| AAGGAAAATATTAACTGTACATATAAAATATATATA [XGTACX_site5310] | 6.33 |
| ACAATATTATTATTTAACCATACACAATTATATGTC [XGTACX_negctrl_site378] | 6.51 |
| GTAATATTAATATAATGTACAAAATGAAACATATAT [XGTACX_site6219] | 6.42 |
| CAGTTTAATTTACATAGTACATAATATTTTAATTTT [XGTACX_site1793] | 6.13 |
| AGTATACTCAAACACACACACACAAAAAAAAAAAAA [CACACA_site4398] | 6.59 |
| TAAGAAATAAATAGTACACACATAGACACCCACCGA [CACACA_site1516] | 7.1 |
| TAGATACATAAACACACACACACATACATATATACA [CACACA_site9139] | 6.83 |
| TATTTCACTTTTTGTCTGCACTAAAATTTTATGGTA | 7.82 |
| GGTATATAAAAATATTGTACTTAAAAAAATATGTAT [XGTACX_site6253] | 6.19 |
| AAGTATAGTCTTACATATATATATATATATATATAT [GTGCAC_negctrl_site280] | 9.36 |
| AAAAAAAAAAAAAACACACACATATATATAATATAT [CACACA_site3172] | 6.55 |
| TTTTGACTAATATAATATGTTAAGAATTAATAAATA [XGTACX_negctrl_site35] | 6.03 |
| CAAAAAGATAAGGTGTGTACGTATTATAATTTTAAA [XGTACX_site531] | 7.01 |
| TGAAATGATCTTTAGTTGCACTTAAAAATATATATA | 8.52 |
| ATTTAATTTTCCAAATGTACTTATATTTTTATGAAA [XGTACX_site6144] | 6.43 |
| TTAAAAATTATGGATACACACATATATATATATATT [CACACA_site2383] | 6.51 |
| GATATTAAAATATGTAGTACACATATTATATCATAT [XGTACX_site4167] | 6.26 |
| ATAGTTCCTTTTAATACACACAAAAAAAAAAACATG [CACACA_site3415] | 6.58 |
| TATAGGTAAATGGACACACACATATTTATATTTATA [CACACA_site7683] | 6.61 |
| TGTAGTCTGGAGAAGAGTACATAGTATCTGGTAACA [XGTACX_site4944] | 6.52 |
| TATAATATAAGGATCACACACAAACAGACATATATA [CACACA_site557] | 7.01 |

| Sequence | gcPBM binding intensity (ln) |
| --- | --- |
| ATAGAAGCATCACACTGTACATGGATGAACAGAAAA [XGTACX_site7311] | 6.14 |
| TAATGTTTTTATATCACACACAAATATTAAATGATT [CACACA_site543] | 6.37 |
| TTATTAGGTGTATAATGTACATATAATATATATATA [XGTACX_site3398] | 8.2 |
| AAAAACAAAATATAATGTACACAATATATGTATATA [XGTACX_site2301] | 6.53 |
| AAATATTACTACACTACATGCAGTTTTAGGTACACT [TGCATGCA_site42] | 6.65 |
| AATAAACATAAATACACACACAAAAAAAAAAACATA [CACACA_site4396] | 6.9 |
| TTTTTTTTTTTTTGATGTACTAAAAAAAATGAGCCT [XGTACX_site8535] | 6.32 |
| CCAATACATAGAAACTGTACATTATGCATTATACAC [XGTACX_site3531] | 6.98 |
| AATATCTAAATAAAGTGTACTTACCTTATTAATTAT [XGTACX_site2276] | 6.05 |
| ATATATATAATGTGAAGTACATTTTGTTTACATATT [XGTACX_site8405] | 6.77 |
| ATAATTTCTTTTACATGTACAAAATTTGCTTATATG [XGTACX_site5388] | 7.05 |
| TATATATATACATACATACACACATATATATATATA [CACACA_site4109] | 9.2 |
| TAATTTATGGAATATGTGCACTTGCTGATCACTTTT [GTGCAC_site9843] | 9.34 |
| TTTATTAAATAATCTCTTTTTATTACATAATAATAA [XGTACX_negctrl_site382] | 5.91 |
| TTTACACTTTCCAATAGTACATATTAGAATAATTCT [XGTACX_site7734] | 6.53 |
| GGATTATTTATAGGAGTGCATACATATATATATATA [GTGCAC_site9454] | 9.37 |
| ATTAGCTACAAACAAAGGCTACCTATAGCAAGAGGG [GTGCAC_negctrl_site33] | 6.56 |
| AATTTAATCCGTAATAAGAAAAGAAAAAAAAAAAGA [GTGCAC_negctrl_site129] | 6.48 |
| TTATATGTATATATAGTGCAGAACAAAAGATTATAT [GTGCAC_site9599] | 7.69 |
| TTTTTGTTTCATAAATGTACAAAAACAAACATATTT [XGTACX_site5281] | 6.45 |
| ATTTTCCTATTTAGTAGTACTTTTTTCTTTTTTTAA [XGTACX_site5260] | 6.7 |
| TCGTCTCAATAATTATAATAAAAAAATTCCTAAGTC [CACACA_negctrl_site338] | 6.28 |

| Sequence | gcPBM binding intensity (ln) |
| --- | --- |
| ATTTTTTTTTTTTTTTGTACGAATAATATGTATGAA [XGTACX_site5318] | 6.38 |
| TATAAAAAATATATATATAATATTATATATATATAT [TGCATGCA_negctrl_site260] | 8.83 |
| AAAGGAGGGAATTTTTCTAGGTGTGGAGTGCTACTC [XGTACX_negctrl_site63] | 6.36 |
| ATTATATTTATTAATATGTATATTTAATTATATTTA [XGTACX_negctrl_site376] | 6.22 |
| ATTATTGTTTATTGATTTTTGTTAAAATAGGAAATT [GTGCAC_negctrl_site181] | 6.44 |
| TTTCATCTCGTCATTTCTTATATAACTATTTTATAC [CACACA_negctrl_site813] | 6.88 |
| TTCTTTATTATATGCACACGTACATAAAATATATAT [CACACA_site5157] | 9.96 |
| AAGTGTAAAAGTTACACACACAAACTTGTCATTTTT [CACACA_site4614] | 6.32 |
| CAAATTTTTTATTAAACACACAAACATATATATATA [CACACA_site5122] | 8.88 |
| CTTATAAATAAAAGAAGTACATGTTAGTTCAAGTTA [XGTACX_site4183] | 6.37 |
| TTGAAGAAAAAAAAATGTACATAAAAAATATATATG [XGTACX_site428] | 6.79 |
| AAGAAAAGAAACAAAAAAAAAAAGAAATAAAAGGAA [TGCATGCA_negctrl_site171] | 6.24 |
| TTATTATCATCAAATCAAAAAATTCTTTTACCTGTT [CACACA_negctrl_site1348] | 5.83 |
| TATATATATATATGTAGTACCTATAATATTAAATAC [XGTACX_site6118] | 9.16 |
| TATGAATGGTTAAGTACACACATATTAATATAGGTA [CACACA_site7606] | 6.56 |
| AATTTTTTTTTTTTTTTTTTTTATATATGTGTGTGT [XGTACX_negctrl_site129] | 6.26 |
| TATTTATGTTCATATAAACACACGTAAAATTCAAGG [CACACA_site1538] | 6.63 |
| CATATTCATAAAAGTTGTACATGCAATTTTTTTTTT [XGTACX_site2261] | 6.6 |
| TCAATAAAAAAAAACGCACACACAAATATATTCCAT [CACACA_site1223] | 7.03 |
| GTCCCTATAAGGGGAACACACATAAATGGATATATA [CACACA_site6612] | 6.2 |
| TATTTATTTTTCTGTTGTACTTTTCAACATGTTACA [XGTACX_site7457] | 6.8 |
| TCTACATATTAATTATGTACGAATTATTATTAGTAA [XGTACX_site6924] | 6.03 |
